The list shows a part of the results. The list includes weakly bound sequences.

This assay concerns the target MaxL homodimer (UniProt P61244). The assay can be described thus: universal protein-binding microarray (PBM). The conditions noted are these: PBS-based mixture, 10 nM His-tagged protein dimer, 2% milk, 200 ng/uL BSA, 50 ng/uL salmon testes DNA, 0.02% TX-100; detection with Alexa 488 anti-His …; high values mean tight binding; most listed sequences are background and not binding sites; double strand, one strand shown.
UniProt P61244, sequence (P61244 whole entry): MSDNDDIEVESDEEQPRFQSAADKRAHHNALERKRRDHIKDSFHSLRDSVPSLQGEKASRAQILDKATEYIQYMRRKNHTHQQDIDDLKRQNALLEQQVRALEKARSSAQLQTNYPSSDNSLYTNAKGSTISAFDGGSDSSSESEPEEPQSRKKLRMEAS
Take CAACGCTG: the binding signal (normalized occupancy) turned out to be 0.0769. As for CCATTACG, the figure is 0.0805.

Take CACACTAA: the binding signal (normalized occupancy) came out at 0.0788.

Take CCAAGCCA: the binding signal (normalized occupancy) is 0.0769.

Regarding AACTGATT, the binding signal (normalized occupancy) came out at 0.075. As for AATACCAG, the figure is 0.0778; as for CAGGCCAC, 0.0781; as for TATGTAAA, 0.0793. The value for AGGCATTC was 0.0762; that for TGTCAGAA was 0.0757; that for AGGGCCCC was 0.0712.

On to CCCCCCAC, for which the binding signal (normalized occupancy) came to 0.0873. As for GAGCTGCA, the figure is 0.0701; as for TGAGTACA, 0.0768; as for ACGCGATG, 0.0798. As for CCCGGCCA, the figure is 0.0681. For the sequence CAAAGGAG, the binding signal (normalized occupancy) is 0.0723. With ACACCGTG, the binding signal (normalized occupancy) came to 0.09. As for GAGGAGCA, the figure is 0.0788. As for CGCACTAG, the figure is 0.074; as for TGTGTTAA, 0.0788; as for TGGAGCAA, 0.072. For the sequence ACACTGAA, the binding signal (normalized occupancy) was 0.0733.

On to ACGGACCA, for which the binding signal (normalized occupancy) worked out at 0.0743.

Take ATACGGCG: the binding signal (normalized occupancy) was found to be 0.0761.

Turning to AGAGCGGG, the binding signal (normalized occupancy) came to 0.0675. On to TAGAAATA, for which the binding signal (normalized occupancy) was found to be 0.0757.

With GATGGATA, the binding signal (normalized occupancy) was 0.0809. As for GCCAGGTA, the figure is 0.0735; as for CTCTCCAG, 0.0675. The value for TGTGGAAA was 0.0869; that for ACCAGACA was 0.0776; that for AAGTACTT was 0.0682. As for CATTCCAA, the figure is 0.0723; as for CCCGGAGG, 0.0678; as for AGGAGCTG, 0.0685.

In the case of CATTTACG, the binding signal (normalized occupancy) was 0.0793. Consider CGGAGACG, for which the binding signal (normalized occupancy) stood at 0.0734. As for CTTACTGC, the figure is 0.0708; as for CGTTCCTC, 0.075. In the case of ATCAGGGC, the binding signal (normalized occupancy) stood at 0.0698.

As for GCACAGGA, the binding signal (normalized occupancy) was found to be 0.0705. As to GCTTAGCA, the binding signal (normalized occupancy) is 0.0731. As for TCCTCCAA, the figure is 0.0748; as for AACCCCGG, 0.0708; as for ATGGCGAC, 0.0755. Turning to CAGGTTTA, the binding signal (normalized occupancy) came to 0.0705. As for AGACGGCT, the figure is 0.068.

On to ATTCCCAC, for which the binding signal (normalized occupancy) came out at 0.0864. With ACAAGACA, the binding signal (normalized occupancy) amounted to 0.0713. As for AGTTCCAC, the figure is 0.076; as for CCCTCTGA, 0.073. As for CGGGTTGA, the binding signal (normalized occupancy) worked out at 0.0697. As for CGCCTAAA, the figure is 0.0685; as for CACGGGGA, 0.0894.

With TCAGCCAA, the binding signal (normalized occupancy) was 0.0752. The value for CTTGAGAC was 0.0756; that for AACCCCGC was 0.0783. As for ATAACTGG, the figure is 0.0736; as for TGAGCGCA, 0.0802. Take CAAACTTG: the binding signal (normalized occupancy) worked out at 0.0675. In the case of ACTGCTAA, the binding signal (normalized occupancy) is 0.0693. The value for CTACTTCA was 0.0722; that for AGTAGTTA was 0.0804. For ACATGTAG, the binding signal (normalized occupancy) turned out to be 0.101.

With CAAATCTA, the binding signal (normalized occupancy) was 0.0804. The value for GTACCAAA was 0.0692.

For the sequence GACGCGGA, the binding signal (normalized occupancy) is 0.0667. For the sequence CCACAAGC, the binding signal (normalized occupancy) came to 0.072.

As to GCGACTCA, the binding signal (normalized occupancy) stood at 0.0767. For the sequence TTATATAA, the binding signal (normalized occupancy) is 0.0746. The value for ATTGCGAC was 0.078; that for AAGTACCC was 0.077; that for CCTACCCC was 0.0761.

Regarding ATGAATAC, the binding signal (normalized occupancy) amounted to 0.0799. The value for CTACCCAC was 0.0773. As for AGCACCGC, the figure is 0.0688. Take CTCGGGAA: the binding signal (normalized occupancy) came to 0.0681. As for AACAGCCT, the figure is 0.0732. Regarding CGACGCCA, the binding signal (normalized occupancy) amounted to 0.0755. The value for CATAGCTC was 0.0713; that for AGCCAATC was 0.0758. As for ATTTTTTG, the binding signal (normalized occupancy) is 0.0746. The value for CGAACGAA was 0.0711; that for CACGTAGC was 0.0822; that for AGGTTTGG was 0.0667. The value for ACAGGTTC was 0.0753; that for CGACAGGC was 0.0693. As for CGTTCGCC, the figure is 0.072; as for CCCCACCG, 0.0782. With CCCCCATA, the binding signal (normalized occupancy) was 0.0868.

Take GACTCCAC: the binding signal (normalized occupancy) is 0.0754. The value for ATTAAGTG was 0.0783; that for TGCGTCAA was 0.0802; that for GATCCTAC was 0.0762. On to ATAGATAA, for which the binding signal (normalized occupancy) stood at 0.0808. Take ATATACGG: the binding signal (normalized occupancy) came out at 0.0825. As for ATCTCACA, the figure is 0.0818; as for CAGACCCA, 0.0756; as for CTCACGAC, 0.0766.

As for AGTCAGGC, the binding signal (normalized occupancy) is 0.0722. On to AGAATATG, for which the binding signal (normalized occupancy) came to 0.0863. The value for CTGCGCAG was 0.0641.

Take GATACACA: the binding signal (normalized occupancy) was determined as 0.0822.

Take AAGCGCGT: the binding signal (normalized occupancy) is 0.0758. Consider AGTTGGTG, for which the binding signal (normalized occupancy) was 0.0727. The value for GACTCAGC was 0.0719; that for GTCCGAAA was 0.0714; that for GAGAATAC was 0.0816.

In the case of GCGCCCCC, the binding signal (normalized occupancy) was 0.0716.
